# Measured values reported in PubChem BioAssay AID588855 (National Center for Advancing Translational Sciences (NCATS), 2011).
# Values joined by “and” are separate entries in the source; they are usually repeats but may differ in a detail not shown here. Equal entries are not always repeated. Among all 410,000 compounds or so, about 5,000 (1.2%) were called active. Inconclusive means that the source gave no clear call. Such entries were picked first, then a sample of the others. Calls come from the whole dose curve; as a rule, active = well fitted inhibition curve with a large enough effect; inconclusive = small, poorly fitted or top-dose-only effect; inactive = no such curve, though single readings can be large or run the other way. A potency beside an inconclusive call is a rough fit, not a confirmed value.
# Assay: qHTS for Inhibitors of TGF-b; note: nearly all actives have a fitted effect of over 65% in size
# Settings: HepG2 CAGA-GFP TGF-b/SMAD3 reporter, GFP fluorescence, 18 h, TGF-beta stimulated, 500 pg/mL final; series mostly up to 46.1 µM; activity, negative = inhibition: at the top concentration
# Procedure, shortened: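 HEPG2 CAGA-GFP, 1000 cells/well; 2 h settle, 37 C; cpd via pin tool; TGF-b 500 pg/mL final; 18 h, 37 C; GFP imaging ex488/em500-530; %Activity normalised to -TGF-b and +DMSO controls; CRC fit, curve class.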
# % is set by controls: 0 for no effect and ±100 for the full control effect; potency is the fitted concentration of half-maximal effect; tags give direction and shape of the fitted curve.
Compound,Potency,"activity, negative = inhibition"
CC1(C(=O)O)CCC(C(=O)Nc2ccc(S(N)(=O)=O)cc2)C1(C)C (stereo not given),"inconclusive: 1.41 µM [inhibitor, partial curve, poor fit]",
COc1ccc(N=C2C(=Nc3ccc(OC)cc3)N(c3ccc(OC)cc3)C(=S)N2c2ccccc2)cc1,,inactive: -18.9%
Cc1oc(-c2ccccc2Cl)nc1CS(=O)CC(=O)NCc1ccccc1Cl (stereo not given),"inconclusive: 15.8 µM [inhibitor, single point] and inconclusive: 35.5 µM [inhibitor, partial curve, poor fit]",
CCOC(=O)c1ccc(N2CC(O)=C(c3nc4ccccc4c(=O)[nH]3)C2=N)cc1,,inactive: 26.2%
Cc1nc(-c2ccc(NC(=O)Cc3ccccc3)cc2)cs1,"inconclusive: 0.501 µM [inhibitor, partial curve, poor fit]",
Brc1ccc2c(c1)C(c1cccs1)=NNC(c1cccnc1)=N2,"inconclusive: 20 µM [inhibitor, single point]",
Cc1ccc(Cl)cc1NC(=O)C1CCN(C(=O)c2cnn(-c3ccccc3)c2-n2cccc2)CC1,"inconclusive: 15.8 µM [inhibitor, single point]",
O=C1c2cc(S(=O)(=O)NCCCO)ccc2-c2ccc(S(=O)(=O)NCCCO)cc21,"inconclusive: 35.5 µM [inhibitor, single point]",
CCCCOP(=O)(OCCCC)C1(NS(=O)(=O)c2ccccc2)C=CC(=O)c2ccccc21 (stereo not given),"inconclusive: 35.5 µM [inhibitor, single point]",
O=[N+]([O-])c1cc(-c2nnc(-c3ccccc3)o2)ccc1Oc1ccc(Cl)cc1,"inconclusive: 14.1 µM [inhibitor, single point]",
C(=C\c1ccccc1)/CN1CCN(C(c2nnnn2C2CCCC2)C2CC2)CC1 (stereo not given),active: 7.94 µM,
CCCCOc1ccc(C2=NNC(=O)CC2)cc1,"inconclusive: 3.98 µM [inhibitor, partial curve]",
CC(=O)/C=C(\C)N=Nc1c(O)[nH]c2ccccc12,"inconclusive: 11.2 µM [inhibitor, partial curve, poor fit]",
O=C(CSc1nc2c([nH]c3ccccc32)c(=O)n1-c1ccc(F)cc1)NCc1ccc(F)cc1,,inactive: -6.74%
COc1ccc(C(=O)OC(C)C(=O)Nc2cc(C(F)(F)F)ccc2Cl)c(OC)c1OC (stereo not given),"inconclusive: 31.6 µM [inhibitor, single point]",
Cc1ccc(Sc2ncccc2COC(=O)Nc2ccccc2)cc1,,inactive: 0.219%
COc1ccc2c(-c3ccccc3)cc(SCC(=O)NC3CCS(=O)(=O)C3)nc2c1 (stereo not given),"inconclusive: 35.5 µM [inhibitor, single point]",
COc1cc(CNCCCN2CCOCC2)cc(Br)c1OCc1ccc(Cl)cc1,"inconclusive: 22.4 µM [inhibitor, single point]",
Cc1noc(C)c1C(=O)Nc1nc(-c2ccc([N+](=O)[O-])cc2)cs1,"inconclusive: 35.5 µM [inhibitor, single point]",
N#Cc1sc2nc(N3CCCCC3)c3c(c2c1N)CCCC3,active: 11.2 µM,
CC1CN(S(=O)(=O)c2cccc(C(=O)Nc3ccccc3N3CCOCC3)c2)CC(C)O1 (stereo not given),,inactive: -28.9%
COc1ccccc1CNc1nc(NC(C)C)nc2cc(-c3ccccc3)sc12,"inconclusive: 25.1 µM [inhibitor, single point]",

Compound,Potency,"activity, negative = inhibition"
S=c1[nH]nc(-c2ccncc2)n1/N=C/C(Cl)=C\c1ccccc1,"inconclusive: 35.5 µM [inhibitor, single point]",
COC(=O)c1ccc(C(=S)NCC2(N(C)C)CCCCC2)cc1,,inactive: 8.5%
Cc1cc(C)nc(SCc2ccc(C(=O)N/N=C/c3ccccn3)cc2)n1,"inconclusive: 3.55 µM [inhibitor, single point]",
CCN(C(=O)COC(=O)c1ncc(Cl)c(Cl)c1Cl)c1c(N)n(Cc2ccccc2)c(=O)[nH]c1=O,,inactive: 1%
Nc1cc2c(cc1O)CCCC2,"inconclusive: 2.82 µM [inhibitor, partial curve, poor fit]",
O=C1C(=NO)CCc2ccccc21,"inconclusive: 3.98 µM [inhibitor, partial curve, poor fit]",
COC(=O)C(Sc1ccc(Cl)cc1)C1SC(=S)N(Cc2ccccc2)C1=O (stereo not given),"inconclusive: 25.1 µM [inhibitor, single point]",
CCN(CC)c1ccc(NC(=O)CN2CCN(S(=O)(=O)c3cc(Cl)ccc3OC)CC2)cc1,"inconclusive: 3.98 µM [inhibitor, full curve]",
O=C(NN=C1CCCCCC1)c1cccnc1,,inactive: 1.18%
COc1ccc(NC(=O)CSc2nc(-c3ccccc3)[nH]c2-c2ccccc2)cc1OC,"inconclusive: 17.8 µM [inhibitor, single point]",
COc1cccc(C2c3c(-c4ccccc4)n[nH]c3C(=O)N2c2ccc(C(=O)O)cc2)c1 (stereo not given),"inconclusive: 5.62 µM [inhibitor, single point]",
COC(=O)C1=C(C)N(Cc2ccccc2)C(=NCCc2cccnc2)N[C@H]1c1ccc(Br)cc1,"inconclusive: 35.5 µM [inhibitor, single point]",
CCOC(=O)c1ccc(NC2=CC(=O)C(=O)c3ccccc32)cc1,"inconclusive: 22.4 µM [inhibitor, single point]",
C#CC(=O)N(c1cc(OC)ccc1OC)C(C(=O)NC1CCCC1)c1cccs1 (stereo not given),"inconclusive: 35.5 µM [inhibitor, single point]",
Cc1c(Cl)cccc1-n1ncc(C(=O)N2CCC(C)CC2)c1C1CCN(C(=O)OC(C)(C)C)CC1,,inactive: -7.4%
COc1ccc(-n2cccc2/C=C/[N+](=O)[O-])cc1,active: 17.8 µM,
CC(/C=C1\SC(=O)N(CCCC(=O)O)C1=O)=C\c1ccccc1,"inconclusive: 35.5 µM [inhibitor, single point]",
O=C(CCS(=O)(=O)c1nc(-c2cccs2)cc(C(F)(F)F)n1)Nc1ccc(F)c(Cl)c1,active: 20 µM,
Cc1ccc(NC(=O)C2CCN(S(=O)(=O)c3ccc4c(c3)CCCN4C(=O)C3CCC3)CC2)cc1,"inconclusive: 8.91 µM [inhibitor, partial curve, poor fit]",
S=C(NCc1ccncc1)Nc1ccc(Cl)c(Cl)c1,"inconclusive: 22.4 µM [inhibitor, single point]",
Cc1ccc(S(=O)(=O)Nc2cccc3c2O[C@@H](CN(C)C(=O)Nc2ccc4c(c2)OCO4)[C@H](C)CN([C@@H](C)CO)C3=O)cc1,,inactive: -14.5%
Cn1c(-c2cccc([N+](=O)[O-])c2)cnc1NCc1ccc(C#N)cc1,"inconclusive: 7.08 µM [inhibitor, partial curve, poor fit]",

Compound,Potency,"activity, negative = inhibition"
O=C(NCCCN1CCCCC1)c1[nH]c2ccccc2c1Sc1ccc(Cl)cc1,"inconclusive: 35.5 µM [inhibitor, single point]",
Nn1c(-c2ccc(O)cc2)nnc1-c1ccc(O)cc1,,inactive: 4.23%
COc1ccc2c(c1)cc(C(=O)N[C@@H](Cc1ccccc1)C(=O)O)n2C,,inactive: -1.18%
O=C(NC(NC(=S)Nc1ccc(Cl)c(Cl)c1)C(Cl)(Cl)Cl)c1ccco1 (stereo not given),"inconclusive: 35.5 µM [inhibitor, single point]",
O=[N+]([O-])c1cc(-c2nnc(Nc3ccc(O)cc3)c3ccccc23)ccc1N1CCOCC1,"inconclusive: 11.2 µM [inhibitor, partial curve]",
CN(C)S(=O)(=O)CC12CCC(CC1=O)C2(C)C (stereo not given),"inconclusive: 35.5 µM [inhibitor, single point]",
CC(C)(C)[C@H]1C=C(C(=O)N2CCN(Cc3ccc4c(c3)OCO4)CC2)O[C@@H](OCCCCO)C1,"inconclusive: 5.62 µM [inhibitor, single point]",
O=c1c2ccccc2[nH]c(=S)n1CCC1=CCCCC1,,inactive: 12.1%
Clc1ccc(CN2CCN(c3ncccn3)CC2)c(Cl)c1,"inconclusive: 35.5 µM [inhibitor, single point]",
Cc1cccc(NS(=O)(=O)c2ccc(OCC(=O)N3CCCC3)cc2)c1,"inconclusive: 20 µM [inhibitor, single point]",
COc1ccc(C2OC(=O)Cc3cc(OC)c(OC)cc32)cc1 (stereo not given),"inconclusive: 22.4 µM [inhibitor, single point]",
COc1ccccc1N1CCN(Cc2ccc(OC)c3ccccc23)CC1,"inconclusive: 25.1 µM [inhibitor, single point]",
CCc1ccc(NC(=O)C2CCCN(S(=O)(=O)c3c(C)noc3/C=C/N(C)C)C2)cc1 (stereo not given),"inconclusive: 25.1 µM [inhibitor, single point]",
C/C(=N\NC(=O)c1ccccc1O)c1c(O)cc(C)oc1=O,"inconclusive: 3.16 µM [inhibitor, partial curve, poor fit]",
O=C(Cn1ccc2cc(S(=O)(=O)N3CCCCCC3)ccc21)NCCc1ccc(Cl)cc1,,inactive: -28.7%
CCOC(=O)c1c(-c2ccccc2)csc1NC(=O)c1cc(-c2ccc(C)c(F)c2)on1,,inactive: 19.8%
CCC(C)NCCCOc1c(C)cc(C)cc1Br (stereo not given),"inconclusive: 35.5 µM [inhibitor, single point]",
O=C(OCc1ccccc1)N1CCC2CC1c1cc(N3CCN(C(=S)NCCc4ccccc4)CC3)ccc12 (stereo not given),,inactive: -21.9%
CCN(CC)S(=O)(=O)c1ccc2c(c1)N(CC(=O)N1CCN(c3ccc(Cl)cc3)CC1)C(=O)CO2,,inactive: -7.58%
Cc1c(F)cccc1NS(=O)(=O)c1ccc2c(c1)n(C)c(=O)c(=O)n2C,,inactive: 9.85%
C#CCN1C=CC(=O)[C@@H](OC(=O)Nc2ccc(C)cc2)[C@H]1c1ccccc1Br,"inconclusive: 25.1 µM [inhibitor, single point]",
